Hit rate of the full screen: of about 280,000 compounds, about 1,100 (0.39%) were called active. The shares of active, inactive and inconclusive entries below differ from those in the screen. Calls come from the whole dose curve; as a rule, active = well fitted inhibition curve with a large enough effect; inconclusive = small, poorly fitted or top-dose-only effect, or effect the other way; inactive = flat fitted curve, though single readings scatter. Where the call is inconclusive, the potency comes from a doubtful curve fit.
The compounds below were run against Microtubule-associated protein tau (Homo sapiens) (UniProt P10636) (assay: qHTS for Inhibitors of Tau Fibril Formation, Fluorescence Polarization). Conditions: K18 P301L tau heparin fibrillization, Alexa594 FP, 6 h; series mostly up to 57.7 µM; activity, negative = inhibition: at the top concentration.
UniProt P10636, sequence (P10636 whole entry, looked up): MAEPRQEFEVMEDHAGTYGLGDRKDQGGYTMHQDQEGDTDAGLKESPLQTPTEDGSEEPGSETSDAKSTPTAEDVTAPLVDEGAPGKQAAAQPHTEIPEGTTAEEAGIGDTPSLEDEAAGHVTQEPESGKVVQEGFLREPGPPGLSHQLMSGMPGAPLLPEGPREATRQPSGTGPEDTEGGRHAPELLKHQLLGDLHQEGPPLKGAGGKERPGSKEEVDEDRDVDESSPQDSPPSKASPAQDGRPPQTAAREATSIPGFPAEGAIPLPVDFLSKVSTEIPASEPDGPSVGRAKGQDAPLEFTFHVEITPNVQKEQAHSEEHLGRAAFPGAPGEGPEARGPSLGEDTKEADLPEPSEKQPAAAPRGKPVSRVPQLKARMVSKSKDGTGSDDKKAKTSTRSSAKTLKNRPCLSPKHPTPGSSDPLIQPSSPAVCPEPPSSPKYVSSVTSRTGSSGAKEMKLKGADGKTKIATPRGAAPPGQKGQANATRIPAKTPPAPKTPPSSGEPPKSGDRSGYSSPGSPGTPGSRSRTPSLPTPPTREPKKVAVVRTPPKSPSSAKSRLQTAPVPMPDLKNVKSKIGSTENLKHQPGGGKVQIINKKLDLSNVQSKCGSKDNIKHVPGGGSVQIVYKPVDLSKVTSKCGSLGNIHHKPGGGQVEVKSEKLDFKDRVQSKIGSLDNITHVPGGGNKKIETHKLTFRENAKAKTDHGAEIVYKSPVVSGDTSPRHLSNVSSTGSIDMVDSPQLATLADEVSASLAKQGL
Source text: NIH Molecular Libraries Probe Production Network [MLPCN]
NIH Chemical Genomics Center [NCGC]
Assay Provider: Carlo Ballatore, University of Pennsylvania
The microtubule-associated protein tau is an abundant protein in the axons of neurons that stabilizes microtubules. With its ability to modulate microtubule dynamics, tau contributes directly or indirectly, to key structural and regulatory cellular functions. Particularly important is the influence tau exerts on axonal transport, which allows signaling molecules, trophic factors and other essential cellular constituents to travel along the axons. Under pathological conditions, tau becomes sequestered into insoluble aggregates called neurofibrillary tangles. This phenomenon is believed to have pathological consequences by promoting axonal transport deficits that ultimately lead to synaptic dysfunction and neuronal loss. To identify inhibitors of tau aggregation, a heparin-induced tau fibril formation assay was used that employed a recombinantly expressed fragment of tau, K18 (Q242-E372), bearing a P301L mutation (Gustke et al. 1994; Hong et al. 1998).
Gustke, N., B. Trinczek, et al. (1994). "Domains of tau protein and interactions with microtubules." Biochemistry 33(32): 9511-22.
Hong, M., V. Zhukareva, et al. (1998).
Li, W. and V. M. Lee (2006). "Characterization of two VQIXXK motifs for tau fibrillization in vitro." Biochemistry 45(51): 15692-701.
von Bergen, M., S. Barghorn, et al. (2001). "Mutations of tau protein in frontotemporal dementia promote aggregation of paired helical filaments by enhancing local beta-structure." J Biol Chem 276(51): 48165-74.
NCGC Assay Protocol Summary:
For screening, 2 uL/well human K18 P301L (15 uM unlabeled and 0.24 uM Alexa 594-labeled tau final concentrations) in reagent buffer (100 mM sodium acetate pH 7) was dispensed into black solid 1536-well plates (Grenier) using a solenoid-based dispenser. Following transfer of 23 nL compound or DMSO vehicle by a pin tool, 2 uL/well heparin (20 uM final concentration) in reagent buffer was added and the plate centrifuged 15 s at 1000 RPM. Plates were incubated 6 hr at 37 C and then 1 uL/well ThT (30 uM final concentration) was added. After a 1 hr ambient incubation, the plates were read by an Envision (Perkin Elmer) to monitor Alexa 594 FP (555 nm excitation and 632 nm emission).
Keywords: NIH Roadmap, MLPCN, MLI, MLSMR, NCGC, qHTS, tau, tauopathies, Alzheimer's disease, fibril, neurodegeneration, aggregation
% is set by controls: 0 for no effect and ±100 for the full control effect; potency is the fitted concentration of half-maximal effect; tags give direction and shape of the fitted curve.
Note: nearly all actives have a fitted effect of over 55% in size.

activity, negative = inhibition, inactive:
O=C(CSCCO)Nc1cccc2ccccc12 10.1%, Cc1ccc(NC(=O)CN2C(=O)N/C(=C/c3cccn3-c3ccc(C(=O)O)cc3)C2=O)cc1 4.23%, CCOc1cc(N2CCOCC2)c(OCC)cc1NC(=O)CN1CCC(Cc2ccccc2)CC1 19.5%, CCc1ccc(NC(=O)Cn2nnc(C(=O)NCc3ccc(C)cc3)c2N)cc1 -2.67%, CCc1ccccc1N(C)C(=O)c1cn(-c2cccc(OC)c2)c(=O)c2ccccc12 -1.29%, COC(=O)c1ccc(C(NC(=O)OCc2ccccc2)/C(C)=C/[C@@H](C)C(=O)NCCc2c[nH]c3ccc(OC)cc23)cc1 (some centres undefined) 15.1%, O=C(CN(CCc1ccccc1)C(=O)CNS(=O)(=O)c1ccccc1)NCc1ccco1 6.8%, COc1ccc(-n2c(C)cc(/C=C3/SC(=S)N(C)C3=O)c2C)cc1 -7.42%, CC1=C(c2ccc(C)cc2)S(=O)(=O)NC1=NCc1cccc(F)c1 -5.85%, O=C1c2cccc(OCc3ccc(F)cc3)c2CCN1Cc1ccccc1 -12.6%, COc1ccc(OC)c(S(=O)(=O)NCc2cccn2Cc2cccc(C)c2)c1 5.16%, CCOC(=O)c1ccccc1NC(=O)c1sc2ncn(Cc3cccc(F)c3)c(=O)c2c1C -19.1%, Cc1nn2c(-c3ccco3)ccnc2c1-c1ccc(F)cc1 -7.66%, Cc1ccc(/C=N/NC(=O)Cc2cccn2C)s1 7.3%, CCOC(=O)c1c(NC(=O)CSc2nnc(Cc3ccccc3)o2)sc(C(C)=O)c1C -1.35%, Cc1ccccc1CN1C(=O)c2ccccc2Sc2ccc(C(=O)NC(C)c3ccccc3)cc21 (centres undefined) -9.16%, CCN(CC)CCN1C(=O)C(=O)/C(=C(/O)c2cnn(-c3ccccc3)c2C)C1c1cccnc1 (centres undefined) 0.622%, CC(NCc1ccc2c(c1)OCO2)C(=O)NC1CCCCC1 (centres undefined) 5.89%, COc1ccc(Br)cc1C(C[N+](=O)[O-])c1c(N)n(C)c(=O)n(C)c1=O (centres undefined) 9.6%, CC(NC(=O)Cn1c(=O)[nH]c2ccsc2c1=O)C12CC3CC(CC(C3)C1)C2 (centres undefined) -0.248%

Potency, inconclusive:
CC(C)(C)c1ccc(S(=O)(=O)c2cn(CC(=O)Nc3ccccc3)c3ccccc3c2=O)cc1 14.1 µM [inhibitor, partial curve], Cc1ccc(CNC(=O)c2ccc3c(c2)N(Cc2ccccc2)C(=O)c2ccccc2S3(=O)=O)cc1 17.8 µM [inhibitor, partial curve], CCc1ccc(C(=O)NC(=S)Nc2ccc3c(c2)OCCO3)cc1 17.8 µM [inhibitor, partial curve], COc1ccc(-c2nc3c(-c4ccc(F)cc4)cnn3cc2C)cc1F 7.94 µM [inhibitor, full curve, poor fit], Cc1c(C(=O)Nc2ccc(F)c(Cl)c2)oc2ccc(S(=O)(=O)N(C)C3CCCCC3)cc12 5.62 µM [inhibitor, partial curve], Cc1nn(C)c2c1c(C(F)(F)F)cc(=O)n2CC(=O)N1CCCCC1C (centres undefined) 44.7 µM [inhibitor, single point], Cc1ccc(OCC(=O)c2cc(C)c(C)cc2C)c([N+](=O)[O-])n1 8.91 µM [inhibitor, partial curve], CN(C)c1ccc(C2C=C(c3ccccc3)Nc3nnnn32)cc1 (centres undefined) 15.8 µM [activator, single point], O=S(=O)(O)CCS 14.1 µM [inhibitor, partial curve], O=C(CSc1nc2ccccc2c(=O)n1-c1ccc(F)cc1)Nc1ccc(Cl)c(S(=O)(=O)N2CCOCC2)c1 22.4 µM [inhibitor, single point], CCOC(=O)c1ccc(NS(=O)(=O)c2cc(-c3onc(C)c3C)ccc2C)cc1 15.8 µM [inhibitor, single point], Cc1cc(=O)oc2cc(OCC(=O)OCC(=O)N3CCc4ccccc43)ccc12 3.16 µM [inhibitor, single point], CCOc1ccc(NC(=O)c2ccccc2NS(=O)(=O)c2ccc(F)cc2)c([N+](=O)[O-])c1 8.91 µM [activator, partial curve], COc1ccc(Nc2nc(N3CCCC3)nc(N3CCCC3)n2)c(OC)c1 1 µM [activator, partial curve, poor fit], N#C/C(=C(/O)COc1ccc(Cl)cc1)c1nc2ccccc2s1 10 µM [activator, partial curve, poor fit], COC(=O)c1ccc(NC(=O)CC2C(=O)N(c3ccc(Cl)cc3)C(=O)N2Cc2ccco2)cc1 (centres undefined) 22.4 µM [inhibitor, single point], COc1cc(OC)c(C2Nc3c(C)cccc3-c3cc(C)nn32)cc1OC (centres undefined) 1.41 µM [inhibitor, full curve, poor fit], CC1=C(C(=O)Nc2cccnc2)C(c2ccc(Cl)cc2)n2nc(-c3ccccc3)nc2N1 (centres undefined) 0.794 µM [inhibitor, full curve, poor fit], COc1ccc(/C=C(\C#N)c2nc(-c3cc4c(ccc5ccccc54)oc3=O)cs2)cc1O 25.1 µM [inhibitor, partial curve, poor fit], COc1ccc(-c2nn(-c3ccccc3)cc2/C=N/NC(=O)c2cccc(S(=O)(=O)Nc3ccccc3Cl)c2)cc1 12.6 µM [inhibitor, partial curve], COc1ccc(OCc2nc3c4c(-c5ccccc5)c(-c5ccccc5)oc4ncn3n2)cc1 44.7 µM [inhibitor, single point], COc1ccccc1Nc1nc(-c2sc(NC(=O)c3cccc(Cl)c3)nc2C)cs1 5.01 µM [activator, full curve], Oc1cccc(-c2nc3ccc4ccccc4c3c3c2CCC3)c1 39.8 µM [inhibitor, single point], CCCCNc1nc2c(S(=O)(=O)c3ccc(C)c(C)c3)nnn2c2ccsc12 25.1 µM [inhibitor, partial curve], COc1cc(Nc2ncc3c(n2)CCN(Cc2cc(Br)cs2)C3)cc(OC)c1 44.7 µM [inhibitor, single point], N#C/C(=C\C1=C(N2CCOCC2)C(=C\c2ccc(Cl)cc2)/CC1)C(=O)Nc1ccccc1F 2.82 µM [inhibitor, full curve], CCOc1ccc(NC(=O)Cn2c(C)cc3ccccc3c2=O)cc1 44.7 µM [inhibitor, single point], Cc1cc(C)n(S(=O)(=O)c2ccc3ccccc3c2)n1 3.55 µM [inhibitor, single point], Cc1ccc(NC(=O)Cn2c(=O)n(CCCCC(=O)NCc3ccccc3Cl)c(=O)c3ccccc32)cc1C 28.2 µM [inhibitor, partial curve, poor fit], CCn1nc(CC(=O)O)c2ccccc2c1=O 3.98 µM [inhibitor, single point], S=C(NCCc1ccccc1)NC1CCC(NC(=S)NCCc2ccccc2)CC1 (centres undefined) 8.91 µM [inhibitor, full curve, poor fit], Cc1ccc(CNC(=O)Cn2c(=O)n(-c3ccc(Cl)cc3)c(=O)c3c(C)c(C)sc32)cc1 2 µM [inhibitor, partial curve, poor fit], O=C(CN1CCN(Cc2ccc3c(c2)OCO3)CC1)Nc1ccc2c(c1)OCO2 1.26 µM [inhibitor, full curve, poor fit], CC(C)(C)c1ccc(C(=O)Nc2ccc(C=C(C#N)C#N)cc2)cc1 39.8 µM [inhibitor, single point], Cn1cc(/C=C2\SC(=O)NC2=S)c2ccccc21 35.5 µM [inhibitor, single point], Cc1ccc(COC(=O)c2nn(-c3ccccc3)nc2N)cc1 28.2 µM [inhibitor, single point], O=C(C1=C[C@@H](C2CCCCC2)C[C@@H](OCc2ccc(CO)cc2)O1)N1CCN(Cc2ccc3c(c2)OCO3)CC1 0.794 µM [activator, single point], O=C(Nc1ccc2nc(SCC(=O)N3CCc4ccccc43)sc2c1)c1ccc(F)cc1 12.6 µM [inhibitor, partial curve], COc1ccc(NC(=O)Cn2nnc(-c3ccccc3NC(=O)c3ccco3)n2)cc1 25.1 µM [inhibitor, partial curve, poor fit], Cc1ccc(CNC(=O)c2ccc(N3CCc4ccccc43)c([N+](=O)[O-])c2)cc1 10 µM [activator, partial curve, poor fit], COc1ccccc1N(O)C1CC(=O)N(c2ccc(F)cc2)C1=O (centres undefined) 39.8 µM [inhibitor, partial curve, poor fit], Cc1nc([N+](=O)[O-])nn1C12CC3CC(CC(Br)(C3)C1)C2 39.8 µM [inhibitor, single point], CCOc1ccc(NC(=O)CN(c2ccc(CC)cc2)S(=O)(=O)c2c(C)noc2C)cc1 39.8 µM [inhibitor, single point], O=C1CC(c2ccco2)CC(O)=C1C=Nc1cc(Cl)ccc1Cl (centres undefined) 25.1 µM [inhibitor, partial curve]

— PubChem BioAssay AID1468 (National Center for Advancing Translational Sciences (NCATS), 2008)
